# Reference: PubChem BioAssay AID1347073 (National Center for Advancing Translational Sciences (NCATS), 2019)
# The whole screen tested about 45,000 compounds, of which about 200 (0.44%) were called active. Roughly 7% stayed inconclusive and do not appear here. The call rests on the fitted dose curve; in most records, active means well fitted activation curve with a large enough effect; inconclusive means small, poorly fitted or top-dose-only effect; inactive means no such curve, though single readings can be large or run the other way. The list shows a part of the results.
# Experiment: qHTS of TDP-43 Inhibitors: NCGC Sytravon Library Screen; further: 0% is about no effect; nearly all actives have a fitted effect of over 55% in size
# Settings: yeast TDP-43 toxicity rescue, BacTiter-Glo growth, 24 h; series mostly up to 46.1 µM; growth rescue (activation): at the top concentration
# Method in brief: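 TDP-43-expressing yeast, pregrown in raffinose, seeded at OD600 0.02 in galactose medium with compound for 24 hr at 30 deg C. Growth read by BacTiter-Glo luminescence, so rescue of toxicity appears as activation.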
row,SMILES,growth rescue (activation)
1,O=C(COc1ccccc1Cl)NCCCNC(=O)c1cnccn1,inactive: 8.1%
2,CC(=O)NCCc1ccc(C(=O)COC(=O)c2cccn2C)cc1,inactive: 6.05%
3,CCCCNC(=O)CSc1nc2ccsc2c(=O)n1CCCC(=O)NCCc1ccc(S(N)(=O)=O)cc1,inactive: 10.6%
4,O=[N+]([O-])c1ccc(C2=Nn3cnnc3SC2)cc1,inactive: 11.2%
5,CC1Cc2ccccc2N1C(=O)Cn1cnc2ccccc21 (stereo not given),inactive: 5.8%
6,OCCC1CCCCN1CC(O)COCc1ccc(Cl)cc1 (stereo not given),inactive: -17.7%
7,CCOC(=O)c1cc(-c2ccc(OC)cc2)nc2c1c(C)nn2CCC(N)=S,inactive: 23%
8,Cc1cc(C)c(NC(=O)C2CCN(c3nc4ccccc4n4cccc34)CC2)c(C)c1,inactive: 7.35%
9,NC(N)=NN=C1CCC(c2ccccc2)CC1 (stereo not given),inactive: -18.6%
10,CCC(=O)Nc1cc(C(=O)O)ccc1Sc1ccc(Cl)cc1,inactive: -8.86%
11,Cc1c([N+](=O)[O-])cc(C(=O)Nc2ccc(NC(=O)c3ccco3)cc2)cc1[N+](=O)[O-],inactive: 5.11%
12,O=C(O)CCCC(=O)Nc1cc([N+](=O)[O-])ccc1O,inactive: -2.68%
13,CCN(CC)S(=O)(=O)c1ccc2c(c1)N(CC(=O)Nc1ccccc1F)C(=O)C1CCCN21 (stereo not given),inactive: -1.38%
14,Nc1ccc(CSc2ccc(Cl)cc2)cc1,inactive: -31.1%
15,O=C1c2ccccc2NC(c2cccc(O)c2)N1NS(=O)(=O)c1ccccc1 (stereo not given),inactive: -20.3%
16,O=C(O)CSc1nnc(COc2cccc3ccccc23)n1Cc1ccccc1,inactive: -0.724%
17,Cc1nc2ccccc2c(=O)n1NC(=O)C1CCC(C(C)(C)C)CC1 (stereo not given),inactive: -1.13%
18,O=C(CCc1c[nH]c2ccccc12)NCCc1ccc2c(c1)OCCO2,inactive: 11.6%
19,CCOc1ccc(C(=O)Nc2cccc(-c3nc4ccccc4[nH]3)c2C)cc1[N+](=O)[O-],inactive: 2.01%
20,COC(=O)c1ccc2c(c1)NC(=O)C(N(CC(C)C)CC(C)C)S2 (stereo not given),inactive: 6.56%
21,Cc1ccccc1C(=O)N1CCC(C(=O)NC2CCCCC2)CC1,inactive: 14.4%
22,C=CCOc1c(CNc2ccc(C(=O)O)cc2)cccc1OC,inactive: 21.4%
23,CN(CC(=O)Nc1ccc(F)cc1)c1ccc(S(=O)(=O)N2CCCCC2)cc1[N+](=O)[O-],inactive: 11.8%
24,Cc1ccc(N2CCN(C(=O)N3CCOCC3)CC2)cc1C,inactive: -7.29%
25,CCOc1ccccc1NC(=O)CSc1nncc2ccccc12,inactive: -16.7%
26,O=C(N/N=C/c1cc([N+](=O)[O-])ccc1O)NC12CC3CC(CC(C3)C1)C2,inactive: 3.01%
27,O=C(Nc1cccc(S(=O)(=O)Nc2ccccc2F)c1)c1ccc2ccccc2n1,inactive: -30.5%
28,CC(C)N(C(=S)NC1CC2CCC1C2)c1ccccc1 (stereo not given),inactive: 28.2%

row,SMILES,growth rescue (activation)
1,O=C(COc1ccccc1Cl)Nc1nc(-c2ccncc2)cs1,inactive: 17.8%
2,COc1ccc(CCN2C(=O)NC(NC(C)=O)(C(F)(F)F)C2=O)cc1OC (stereo not given),inactive: -3.02%
3,COc1ccc(CN2CN(S(=O)(=O)c3ccccc3)c3nc4ccccc4nc32)cc1,inactive: 10.4%
4,O=C(CSc1n[nH]c(-c2ccccc2O)n1)NC1CCCCC1,inactive: -21.1%
5,CC1CCCCN1C(=O)c1cc2c(=O)n3ccccc3nc2s1 (stereo not given),inactive: 12.9%
6,CN(C(=O)CSc1nnc(-c2ccco2)n1C)C1CCCCC1,inactive: 1.56%
7,COc1ccc(CNC(=O)c2cccnc2Sc2ccc(C)c(C)c2)cc1,inactive: -2.75%
8,CCN(C(=O)COC(=O)c1cc(OC)ccc1Br)C1CCS(=O)(=O)C1 (stereo not given),inactive: -3.11%
9,CSCc1ccc(C(=O)Nc2cc(C)cc(C)c2)cc1,inactive: 17%
10,Cc1ccc(NCc2cccn2-c2nnc(N3CCC(C(=O)NCCC(C)C)CC3)s2)cc1,inactive: 6.44%
11,Cc1ccc(S(=O)(=O)NCc2ccc(C(=O)NCCN(Cc3ccccc3)C(C)C)cc2)cc1,inactive: -1.38%
12,N/C(Cc1ccc(Cl)cc1Cl)=N\OC(=O)c1ccc(Br)o1,inactive: -93.2%
13,COc1ccc(C(=O)N2CCC(n3c(C)nc4cc(F)ccc43)CC2)cc1,inactive: 3.81%
14,CCOC(=O)/C(C)=N/Nc1nc(-c2ccc(NC(C)=O)cc2)cs1,inactive: 7%
15,CCOC(=O)C(=O)N1c2ccccc2C(N(C(=O)C(=O)OCC)c2ccccc2)CC1C (stereo not given),inactive: 16.7%
16,Cc1ccc(CN2CCNC(=O)C2CC(=O)N(C)CCc2cnn(C)c2)cc1 (stereo not given),inactive: 20.3%
17,COc1ccc(NC(=O)c2n[nH]c(=O)c3ccccc23)cc1S(=O)(=O)N1CCCCC1,inactive: -4.11%
18,COc1ccc([N+](=O)[O-])cc1NC(=O)CC1SC(=Nc2cccc(C)c2C)N(/N=C/c2cccc(OC)c2OC)C1=O (stereo not given),inactive: 17.9%
19,CCc1cc2c(SCC(=O)NC3CCS(=O)(=O)C3)ncnc2s1 (stereo not given),inactive: 7.25%
20,O=S(=O)(NC1CCCCC1Sc1ncccn1)c1ccc(Cl)cc1 (stereo not given),inactive: 25.4%
21,COc1ccc(C(=O)NNC(=O)C(=O)NC2CCCCC2)cc1,inactive: 9.07%
22,CN(C(=S)Nc1cccnc1)c1ccc(O)cc1,inactive: -7.04%
23,COc1ccc(N(C(=O)COc2ccc(C)cc2)S(=O)(=O)c2ccc(C)cc2)cc1,inactive: 22.5%
24,CS(=O)(=O)c1ccc(Cl)c(C(=O)NC2CCSc3ccccc32)c1 (stereo not given),inactive: -11.3%
25,COCCNC(=S)N(C)C1(c2ccccc2Cl)CCCCC1=O (stereo not given),inactive: 5.88%
26,Cn1cccc1-c1cc(C(=O)N/N=C/c2ccc([N+](=O)[O-])cc2)[nH]n1,inactive: 12.8%
27,COc1ccc(-c2cnc3c(NC=O)cc(-c4ccc(S(C)(=O)=O)cc4)cn23)cc1OC,inactive: -8.35%
